Results: PubChem BioAssay AID445 (National Center for Advancing Translational Sciences (NCATS), 2006)
About 40 (0.04%) of roughly 110,000 compounds were called active. Inconclusive results, whose numbers are uncertain, are shown with a selection of clear calls. Calls follow the shape of the dose curve; as a rule, active = well fitted curve in the direction sought with a large enough effect in the signal ratio (not every such curve was filed as active); inconclusive = small, poorly fitted or top-dose-only effect, or a change in a side signal; inactive = flat fitted curve, though single readings scatter; the % refers to the signal ratio. Potencies of inconclusive entries are doubtful fits and often do not repeat.
Potency is read from the fitted curve at half-maximal effect.

Experiment: IkB Signaling;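 as to IkBa stabilization activation: 0% = basal untreated cells and 100% = reference inhibitor full response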
Conditions: ABC-DLBCL IkBa-CBG/CBR dual luciferase ratio (green luciferase fused to IkBa over red control in OCI-Ly3 lymphoma cells), 4 h; IkBa stabilization activation: at 57.1 µM (top of the series), scaled: untreated 0%, proteasome inhibitor 100% unless noted
How it was run: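 Curves were fitted separately to fusion (green), unfused (red) and ratio luminescence, then classed by r2, magnitude and activity. Cells: OCI-Ly3, 4 h compound plus doxycycline at 37C; 10 uM MG-132 defined full response.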
For Cc1ccc(CS(=O)Cc2ccc(C(=O)NCc3ccccc3Cl)o2)cc1 (centres undefined), the IkBa stabilization activation was inconclusive: 1.13% [signal inhibitor]. With COc1ccccc1C(=O)Nc1cccc(OCc2cc(=O)n3c(C)csc3n2)c1 the IkBa stabilization activation was inconclusive: 0.489% [signal inhibitor]. With CC(C)c1ccc(NC(=O)C2CCN(S(=O)(=O)c3ccc(Br)s3)CC2)cc1 the IkBa stabilization activation was inconclusive: 12.3% [signal inhibitor]. For CN(Cc1ccco1)c1ncnc2ccc(-c3ccccc3Cl)cc12, the IkBa stabilization activation was inactive: -0.513% [at 11.4 µM, scaled: untreated 0%, proteasome inhibitor 100%]. For CN1C(=O)C(O)(CC(=O)c2ccccc2O)c2cc(Br)ccc21 (centres undefined), the Potency was inconclusive: 7.94 µM [signal activator, partial curve]. In the case of CSc1nn(Cc2ccccc2C)c(NC(C)=O)c1S(=O)(=O)c1ccc(C)cc1, the IkBa stabilization activation is reported as inconclusive: 2.44% [signal inhibitor]. With CCSc1nc2ccccc2n1S(=O)(=O)c1ccccc1 the IkBa stabilization activation was “inactive”. For CCNc1nc(NCC)n2c(SCc3ccc(F)cc3)nnc2n1, the IkBa stabilization activation was “inactive”. With COc1ccccc1-c1ccc(Nc2cccc(C(C)=O)c2)nn1 the IkBa stabilization activation was “inactive”. With Cn1nc(-c2ccc(N3CCOCC3)c(NC(=O)COc3ccccc3)c2)c2ccccc2c1=O the IkBa stabilization activation was “inactive”. In the case of Cc1cc2cc(CCNS(=O)(=O)c3ccc(Br)cc3)c(=O)[nH]c2cc1C, the IkBa stabilization activation is reported as inconclusive: 7.46% [signal inhibitor]. For COc1ccccc1C(=O)Nc1ccc2nc(SCC(=O)N3CCCC3)sc2c1, the IkBa stabilization activation was inconclusive: 0.181% [signal inhibitor]. With CCCCc1cc(O)c(CCCC)c(O)c1 the IkBa stabilization activation was inconclusive: 16.4% [signal inhibitor]. In the case of O=C(NCCCn1ccnc1)c1cc(S(=O)(=O)N2CCOCC2)c(Cl)cc1Cl, the IkBa stabilization activation is reported as “inactive”. With CCCCCn1c(=O)[nH]c2cc(C(=O)N3CCN(c4cccc(Cl)c4)CC3)ccc2c1=O the IkBa stabilization activation was inconclusive: -2.82% [signal inhibitor]. For N=C(N)SC(c1ccccc1)c1ccccc1, the IkBa stabilization activation was inactive: 3.82% [at 11.4 µM, scaled: untreated 0%, proteasome inhibitor 100%]. For COc1cccc(-c2nnc(SCC(=O)OC(C)C)n2Cc2ccco2)c1, the IkBa stabilization activation was “inactive”. With Cc1ccc(OCC(=O)Nc2cccc(O)c2)cc1C the IkBa stabilization activation was inconclusive: 8.72% [signal inhibitor]. With CC(C)N=c1cc2n(-c3ccc(Cl)cc3)c3ccccc3nc-2cc1Nc1ccc(Cl)cc1 the IkBa stabilization activation was “inactive”. For Cc1ccc2nc(N(Cc3cccnc3)C(=O)c3ccco3)sc2c1, the IkBa stabilization activation was inconclusive: 1.51% [signal inhibitor]. For Cc1cccc(N2CCN(C(=O)c3cn(C)c4ccc(S(=O)(=O)N(C)C)cc4c3=O)CC2C)c1 (centres undefined), the IkBa stabilization activation was inconclusive: -1.46% [signal inhibitor]. In the case of CCc1nnc(SCC(=O)Nc2ccc(Cl)cc2F)c2cc3occc3n12, the IkBa stabilization activation is reported as inconclusive: -0.219% [signal inhibitor]. With CCOC(=O)Cn1c(=O)n(-c2ccccc2OC)c2nc(-c3ccccc3)nc(C(N)=O)c21 the IkBa stabilization activation was inconclusive: 2.42% [signal inhibitor]. With CCc1ccc(-n2c(SCc3nc(-c4cc(OC)ccc4OC)no3)nnc2-c2ccccc2)cc1 the IkBa stabilization activation was inconclusive: -0.0816% [signal inhibitor]. For Cc1cc(Br)cc(C)c1NC(=O)c1cnc2ccccn2c1=O, the IkBa stabilization activation was “inactive”. With COCCNc1cc(-c2ccccc2C(F)(F)F)ncn1 the IkBa stabilization activation was inactive: 0.637% [at 11.4 µM, scaled: untreated 0%, proteasome inhibitor 100%]. In the case of CCn1c(N2CCN(S(=O)(=O)c3ccccc3C(F)(F)F)CC2)nc2ccccc21, the IkBa stabilization activation is reported as inconclusive: 9.82% [signal inhibitor]. In the case of Cn1c(C[C@@H](O)c2nc3ccccc3n2C)nc2ccccc21, the IkBa stabilization activation is reported as inactive: 0.843% [at 11.4 µM, scaled: untreated 0%, proteasome inhibitor 100%]. In the case of COc1cccc(NS(=O)(=O)c2ccc3[nH]c4c(c3c2)CCCCCC4)c1, the IkBa stabilization activation is reported as inconclusive: 3.82% [signal inhibitor]. With COc1ccc(-c2onc(C)c2C)cc1S(=O)(=O)N1CCc2ccccc21 the IkBa stabilization activation was inconclusive: 2.95% [signal inhibitor]. In the case of C#CCSc1nc(-c2cccs2)ccc1C#N, the IkBa stabilization activation is reported as “inactive”. In the case of CCOC(=O)c1ccc(NC(=O)CC2Nc3cccc4cccc(c34)NC2=O)cc1 (centres undefined), the IkBa stabilization activation is reported as inconclusive: 0.725% [signal inhibitor]. In the case of Cc1noc(C)c1S(=O)(=O)Nc1ccc(C(=O)Nc2ccc(C(C)C)cc2)cc1, the IkBa stabilization activation is reported as inconclusive: -2.46% [signal inhibitor]. In the case of COc1c(C)cccc1C(=O)Nc1ccc(Cl)c(-c2nc3cc(C)ccc3o2)c1, the IkBa stabilization activation is reported as “inactive”. With COc1ccc(-c2nc3sc(CCNC(=O)Cc4ccc(Cl)cc4)c(C)n3n2)cc1 the IkBa stabilization activation was inconclusive: 5.64% [signal inhibitor]. In the case of C/C=C/Cn1c(SCc2ccc(Cl)cc2)nc2c1c(=O)[nH]c(=O)n2C, the IkBa stabilization activation is reported as inconclusive: 5.42% [signal inhibitor]. With COc1ccccc1CNc1nc2nc3c(c(=O)n2[nH]1)CCC3 the IkBa stabilization activation was inconclusive: 14.8% [signal inhibitor]. In the case of CCOc1ccccc1NC(=O)Nc1ccc2nc(N3CCN(C)CC3)cc(C)c2c1, the IkBa stabilization activation is reported as “inactive”. For CC(C)C[C@@H](CC(=O)N[C@@H](CCC(=O)O)CC(=O)O)NC(=O)[C@@H]1CNCC[C@H]1NC(=O)C[C@H](CCCN)NC(=O)C[C@H](Cc1c[nH]c2ccccc12)NC(=O)[C@@H]1CCCC[C@H]1N, the IkBa stabilization activation was “inactive”. With CC(C)c1ccc(NC(=O)c2ccc3oc(=O)c(S(=O)(=O)c4ccc(F)cc4)cc3c2)cc1 the IkBa stabilization activation was inconclusive: 7.85% [signal inhibitor]. With CC(C)c1ccc(NC(=O)CSc2ncnc3c2sc2ccccc23)cc1 the IkBa stabilization activation was inconclusive: 3.95% [signal inhibitor]. With Clc1cccc(CSc2nc(NCCc3ccccc3)c3ccccc3n2)c1 the IkBa stabilization activation was “inactive”. In the case of O=C(c1ccc2c(c1)OCCCO2)c1cccs1, the IkBa stabilization activation is reported as “inactive”. For CCN1CCN(c2ncc(C(=O)Nc3cc(Cl)ccc3OC)c3ccccc23)CC1, the IkBa stabilization activation was inconclusive: 17.6% [signal inhibitor].
